Test results reported in the supplement of paper PMC8728848.
This is one part of the list.

Experiments:
Experiment in all cases: glycan array binding signal (z-score within array); higher = stronger binding
Settings in all cases: glycan notation: IUPAC condensed, linker removed
[1] = biological target: Gal6S(b1-4)GlcNAc
Summary of the method: (§1)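 Negative Z-scores can be read as non-binding. The Z-score is calculated within each array and then averaged across arrays of one protein sequence at different concentrations or buffers and across linkers. Arrays, 3228 in all, were curated from the Consortium for Functional Glycomics database and kept only where the protein sequence was available.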

[2] = biological target: Gal6S(b1-4)GlcNAc6S
Summary of the method: as §1

[3] = biological target: GalNAc(a1-3)Gal
Summary of the method: as §1

[4] = biological target: GalNAc(a1-3)GalNAc
Summary of the method: as §1

[5] = biological target: GalNAc(b1-3)Gal
Summary of the method: as §1

[6] = biological target: GalNAc(b1-3)Gal(a1-4)Gal(b1-4)GlcNAc
Summary of the method: as §1

[7] = biological target: GalNAc(b1-3)GalNAc
Summary of the method: as §1

[8] = biological target: GalNAc(b1-4)GlcNAc
Summary of the method: as §1

[9] = biological target: Glc(a1-4)Glc
Summary of the method: as §1

[10] = biological target: Glc(a1-6)Glc(a1-6)Glc
Summary of the method: as §1

[11] = biological target: Glc(b1-4)Glc
Summary of the method: as §1

[12] = biological target: Glc(b1-6)Glc
Summary of the method: as §1

[13] = biological target: GlcA(b1-3)Gal
Summary of the method: as §1

[14] = biological target: GlcA(b1-3)GlcNAc
Summary of the method: as §1

[15] = biological target: GlcA(b1-6)Gal
Summary of the method: as §1

[16] = biological target: GlcNAc(a1-3)Gal(b1-4)GlcNAc
Summary of the method: as §1

[17] = biological target: GlcNAc(a1-6)Gal(b1-4)GlcNAc
Summary of the method: as §1

[18] = biological target: GlcNAc(b1-2)Gal(b1-3)GalNAc
Summary of the method: as §1

[19] = biological target: GlcNAc(b1-2)Gal(b1-3)GlcNAc
Summary of the method: as §1

[20] = biological target: GlcNAc(b1-2)Man(a1-3)[GlcNAc(b1-2)Man(a1-6)]Man(b1-4)GlcNAc(b1-4)GlcNAc
Summary of the method: as §1

[21] = biological target: GlcNAc(b1-3)Gal
Summary of the method: as §1

[22] = biological target: GlcNAc(b1-3)Gal(b1-3)GalNAc
Summary of the method: as §1

[23] = biological target: GlcNAc(b1-3)Gal(b1-4)Glc
Summary of the method: as §1

[24] = biological target: GlcNAc(b1-3)Gal(b1-4)GlcNAc
Summary of the method: as §1

[25] = biological target: GlcNAc(b1-3)Gal(b1-4)GlcNAc(b1-3)Gal(b1-4)GlcNAc
Summary of the method: as §1

[26] = biological target: GlcNAc(b1-3)GalNAc
Summary of the method: as §1

[27] = biological target: GlcNAc(b1-3)Man
Summary of the method: as §1

[28] = biological target: GlcNAc(b1-3)[GlcNAc(b1-4)][GlcNAc(b1-6)]GlcNAc
Summary of the method: as §1

[29] = biological target: GlcNAc(b1-3)[GlcNAc(b1-6)]Gal(b1-4)GlcNAc
Summary of the method: as §1

[30] = biological target: GlcNAc(b1-3)[GlcNAc(b1-6)]GalNAc
Summary of the method: as §1

[31] = biological target: GlcNAc(b1-3)[GlcNAc(b1-6)]GlcNAc
Summary of the method: as §1

[32] = biological target: GlcNAc(b1-3)[GlcNAc(b1-6)]GlcNAc(b1-4)GlcNAc
Summary of the method: as §1

[33] = biological target: GlcNAc(b1-4)Gal(b1-4)GlcNAc
Summary of the method: as §1

[34] = biological target: GlcNAc(b1-4)GlcNAc
Summary of the method: as §1

[35] = biological target: GlcNAc(b1-4)GlcNAc(b1-4)GlcNAc
Summary of the method: as §1

[36] = biological target: GlcNAc(b1-4)GlcNAc(b1-4)GlcNAc(b1-4)GlcNAc(b1-4)GlcNAc
Summary of the method: as §1

[37] = biological target: GlcNAc(b1-4)GlcNAc(b1-4)GlcNAc(b1-4)GlcNAc(b1-4)GlcNAc(b1-4)GlcNAc
Summary of the method: as §1

[38] = biological target: GlcNAc(b1-4)[GlcNAc(b1-6)]GalNAc
Summary of the method: as §1

[39] = biological target: GlcNAc(b1-6)Gal(b1-4)GlcNAc
Summary of the method: as §1

[40] = biological target: GlcNAc(b1-6)GalNAc
Summary of the method: as §1

[41] = biological target: GlcNAc3Prop(b1-4)GlcNAc
Summary of the method: as §1

[42] = biological target: Kdn(a2-3)Gal(b1-3)GlcNAc
Summary of the method: as §1

[43] = biological target: Kdn(a2-3)Gal(b1-4)GlcNAc
Summary of the method: as §1

[44] = biological target: Man(a1-2)Man(a1-2)Man(a1-3)Man
Summary of the method: as §1

[45] = biological target: Man(a1-2)Man(a1-2)Man(a1-3)[Man(a1-2)Man(a1-3)[Man(a1-2)Man(a1-6)]Man(a1-6)]Man(b1-4)GlcNAc(b1-4)GlcNAc
Summary of the method: as §1

B1: NcCVNHO (Neurospora crassa), Q7S6U4 (protein)
chain: MSFHVTAEDARIEVRDNRTILFARLRREDGEWNDASYELDQIIGNNDGHFQWGGQNFTETAEDIRFHPKEGAAEQPILRARLRDCNGEFHDRDVNLTEIVENVNGEFQAKF
With B1 as the binder, how does the “glycan array binding signal (z-score)” value [1] read?
The value was -0.213.

What about the “glycan array binding signal (z-score)” value [2] of the same binder?
The value was -0.172.

What about the “glycan array binding signal (z-score)” value [3] of the same binder?
The value was -0.204.

And the “glycan array binding signal (z-score)” value [4]?
Its value is -0.227.

And the “glycan array binding signal (z-score)” value [5]?
The value was -0.185.

And the “glycan array binding signal (z-score)” value [6]?
Its value is 1.19.

And the “glycan array binding signal (z-score)” value [7]?
The value was -0.25.

What about the “glycan array binding signal (z-score)” value [8] of the same binder?
Its value is -0.226.

What about the “glycan array binding signal (z-score)” value [9] of the same binder?
The value was -0.185.

And the “glycan array binding signal (z-score)” value [10]?
The value was 2.37.

And the “glycan array binding signal (z-score)” value [11]?
Its value is 1.17.

And the “glycan array binding signal (z-score)” value [12]?
Its value is 3.02.

What about the “glycan array binding signal (z-score)” value [13] of the same binder?
The value was -0.235.

What about the “glycan array binding signal (z-score)” value [14] of the same binder?
Its value is -0.187.

What about the “glycan array binding signal (z-score)” value [15] of the same binder?
The value was -0.222.

And the “glycan array binding signal (z-score)” value [16]?
Its value is -0.213.

And the “glycan array binding signal (z-score)” value [17]?
The value was -0.245.

And the “glycan array binding signal (z-score)” value [18]?
Its value is -0.262.

What about the “glycan array binding signal (z-score)” value [19] of the same binder?
Its value is -0.132.

What about the “glycan array binding signal (z-score)” value [20] of the same binder?
Its value is -0.212.

And the “glycan array binding signal (z-score)” value [21]?
The value was -0.219.

And the “glycan array binding signal (z-score)” value [22]?
The value was -0.209.

And the “glycan array binding signal (z-score)” value [23]?
The value was -0.221.

What about the “glycan array binding signal (z-score)” value [24] of the same binder?
Its value is -0.219.

And the “glycan array binding signal (z-score)” value [25]?
Its value is -0.236.

What about the “glycan array binding signal (z-score)” value [26] of the same binder?
The value was -0.221.

What about the “glycan array binding signal (z-score)” value [27] of the same binder?
The value was -0.191.

And the “glycan array binding signal (z-score)” value [28]?
Its value is -0.163.

And the “glycan array binding signal (z-score)” value [29]?
The value was -0.236.

What about the “glycan array binding signal (z-score)” value [30] of the same binder?
Its value is -0.26.

And the “glycan array binding signal (z-score)” value [31]?
The value was -0.06.

What about the “glycan array binding signal (z-score)” value [32] of the same binder?
Its value is -0.297.

And the “glycan array binding signal (z-score)” value [33]?
Its value is -0.225.

And the “glycan array binding signal (z-score)” value [34]?
The value was -0.179.

And the “glycan array binding signal (z-score)” value [35]?
The value was -0.237.

And the “glycan array binding signal (z-score)” value [36]?
The value was -0.241.

What about the “glycan array binding signal (z-score)” value [37] of the same binder?
The value was -0.242.

And the “glycan array binding signal (z-score)” value [38]?
The value was -0.219.

And the “glycan array binding signal (z-score)” value [39]?
Its value is -0.22.

What about the “glycan array binding signal (z-score)” value [40] of the same binder?
The value was -0.246.

And the “glycan array binding signal (z-score)” value [41]?
The value was -0.186.

What about the “glycan array binding signal (z-score)” value [42] of the same binder?
The value was -0.232.

What about the “glycan array binding signal (z-score)” value [43] of the same binder?
Its value is -0.24.

What about the “glycan array binding signal (z-score)” value [44] of the same binder?
Its value is 1.23.

And the “glycan array binding signal (z-score)” value [45]?
The value was 8.87.
